Experimental data: the RNAGym collection of RNA variant scans (doi:10.1073/pnas.2313332121)
This sample is rich in variants without activity.

B1: TPR 5TU (parent)
chain: GGAUCUUCUCGAUCUAACAAAAAAGACAAAUCUGCCACAAAGCUUGAGAGCAUCUUCGGAUGCAGAGGCGGCAGCCUUCGGUGGCGCGAUAGCGCCAACGUUCUCAACUAUGACACGCAAAACGCGUGCUCCGUUGAAUGGAGUUUAUCAUG

Variants of: B1
Experiment: polymerase ribozyme fitness, log enrichment relative to wild type (log ratio); higher = more active; in vitro selection for triplet polymerase activity
Method in brief: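 After PCR construction and transcription, each subunit's mutant library from a heterodimeric triplet polymerase ribozyme was annealed with a biotinylated primer, the partner subunit and triplets. Incubation was frozen, at −7 °C, and extended constructs were gel-excised, bound to streptavidin beads and amplified by RT-PCR, in one selection round done in triplicate. Fitness is the logarithm of a genotype's enrichment divided by that of the wild type, from inverse-variance-weighted replicate averages of Illumina-sequenced inputs and outputs. The base of the logarithm is 2, and genotypes needed ≥10 input reads and ≥1 read per output.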

C8G A29C G34C G94C A138U and C8G A29C G34C U78G G86U A97C C149U cannot be ordered by “polymerase ribozyme fitness (log ratio)” value: no more than -4.2 for the first, no more than -4.2 for the second.

C8G A29G A52U A64G C87A U134A and C8G A30G C35U G65U G94U U135C U144G cannot be ordered by “polymerase ribozyme fitness (log ratio)” value: no more than -4.2 for the first, no more than -4.2 for the second.

C8G A30U A47G G80U A91U C99U A110G U145A and C8G A30U U55A C103G cannot be ordered by “polymerase ribozyme fitness (log ratio)” value: no more than -4.2 for the first, no more than -4.2 for the second.

C8G A40G U56G G70C C85G A115G A119G G141U A147C and C8G A40U C43G U44G G68C C85U A110C cannot be ordered by “polymerase ribozyme fitness (log ratio)” value: no more than -4.2 for the first, no more than -4.2 for the second.

C8G A47C C54G and C8G A49U C85A G126U U139G cannot be ordered by “polymerase ribozyme fitness (log ratio)” value: no more than -4.2 for the first, no more than -4.2 for the second.

C8G A52U U77A G88C and C8G A66U A91U G117U A120G G136A A137C U139G U144C cannot be ordered by “polymerase ribozyme fitness (log ratio)” value: no more than -4.2 for the first, no more than -4.2 for the second.

C8G A142C and C8G C10A A29C A30C A41U A52C cannot be ordered by “polymerase ribozyme fitness (log ratio)” value: no more than -4.2 for the first, no more than -4.2 for the second.

C8G C10G A22G A26C A49U G83C C87U A91C A107G A110U G136U and C8G C10U C51A G80C C95A U102G G124U A137C cannot be ordered by “polymerase ribozyme fitness (log ratio)” value: no more than -4.2 for the first, no more than -4.2 for the second.

C8G C10U U61G C87U U90A A97C A98U U146C and C8G C14U A30U C75U cannot be ordered by “polymerase ribozyme fitness (log ratio)” value: no more than -4.2 for the first, no more than -4.2 for the second.

C8G C35A C85A U90G A113C U139G and C8G C35U A40U C95U C149A cannot be ordered by “polymerase ribozyme fitness (log ratio)” value: no more than -4.2 for the first, no more than -4.2 for the second.

C8G C38A C54A G62A C149U and C8G C38U A41G C93U U102G G117C G124C U145G U146A cannot be ordered by “polymerase ribozyme fitness (log ratio)” value: no more than -4.2 for the first, no more than -4.2 for the second.

C8G C54G G94C A98G and C8G C54U G59C G81U C96A U144C cannot be ordered by “polymerase ribozyme fitness (log ratio)” value: no more than -4.2 for the first, no more than -4.2 for the second.

C8G C57U G59A C69G G88U C96G A120U and C8G C75U C93A U148G cannot be ordered by “polymerase ribozyme fitness (log ratio)” value: no more than -4.2 for the first, no more than -4.2 for the second.

C8G C79A A91U A107C G124C U144C and C8G C85G C95A A107G U109A A137U A138G cannot be ordered by “polymerase ribozyme fitness (log ratio)” value: no more than -4.2 for the first, no more than -4.2 for the second.

C8G C93U C95U and C8G G11A A17U G71U G88U U127C U135G U148C A150C cannot be ordered by “polymerase ribozyme fitness (log ratio)” value: no more than -4.2 for the first, no more than -4.2 for the second.

C8G G11C G34C C99G U151G and C8G G11U A19U G83A G88U G94A A107G cannot be ordered by “polymerase ribozyme fitness (log ratio)” value: no more than -4.2 for the first, no more than -4.2 for the second.

C8G G50C C75G C87A C96G C105U G128C and C8G G58C G62C A91U C93A C96G cannot be ordered by “polymerase ribozyme fitness (log ratio)” value: no more than -4.2 for the first, no more than -4.2 for the second.

C8G G65A G71C C96U A120G G126A and C8G G81C U82G cannot be ordered by “polymerase ribozyme fitness (log ratio)” value: no more than -4.2 for the first, no more than -4.2 for the second.

C8G U9C C14G U44G G50A and C8G U9C C35U A49C U53A G67A C87A A115G G141A C149G cannot be ordered by “polymerase ribozyme fitness (log ratio)” value: no more than -4.2 for the first, no more than -4.2 for the second.

C8G U13C A16G A52G G83A U101G G126A and C8G U13C A28U U45G G58A G126A cannot be ordered by “polymerase ribozyme fitness (log ratio)” value: no more than -4.2 for the first, no more than -4.2 for the second.

C8G U31A G34U C57G C93G and C8G U53A cannot be ordered by “polymerase ribozyme fitness (log ratio)” value: no more than -4.2 for the first, no more than -4.2 for the second.

C8G U53C G58C C79U A89G U139C and C8G U56A C93U cannot be ordered by “polymerase ribozyme fitness (log ratio)” value: no more than -4.2 for the first, no more than -4.2 for the second.

C8G U77A A107U U146C and C8G U82A C85A A91U C96U G117C cannot be ordered by “polymerase ribozyme fitness (log ratio)” value: no more than -4.2 for the first, no more than -4.2 for the second.

C8G U90G C96G A110U U145C and C8U A12C A52U G136U cannot be ordered by “polymerase ribozyme fitness (log ratio)” value: no more than -4.2 for the first, no more than -4.2 for the second.

C8U A12C C35U A49C U53G C75G G92A A119U A120G G133U A138C and C8U A12C C38U A47U A49C C85G A150G cannot be ordered by “polymerase ribozyme fitness (log ratio)” value: no more than -4.2 for the first, no more than -4.2 for the second.

Going from C8U A12G A28C C38U C57G C95U to C8U A12G A28U G74A G81A C99U, the “polymerase ribozyme fitness (log ratio)” value rises from no more than -4.2 to -4.18.

C8U A16C G46A A52G C85U C93A and C8U A16C U53A C54A G71C G141C U148C C149U cannot be ordered by “polymerase ribozyme fitness (log ratio)” value: no more than -4.2 for the first, no more than -4.2 for the second.

C8U A16U A49C A73C C85U C108G and C8U A17C A22C A64U A66G G94C cannot be ordered by “polymerase ribozyme fitness (log ratio)” value: no more than -4.2 for the first, no more than -4.2 for the second.

C8U A17G G84U G133C and C8U A17U C93U C105U cannot be ordered by “polymerase ribozyme fitness (log ratio)” value: no more than -4.2 for the first, no more than -4.2 for the second.

C8U A19U A29C A52U C76U C79U C118A A137G and C8U A19U G50C A91U C95G C105U C131U cannot be ordered by “polymerase ribozyme fitness (log ratio)” value: no more than -4.2 for the first, no more than -4.2 for the second.

C8U A21U G50C A52U U53A U55A A60G G70A U111G C125A A142C and C8U A26G C35U C57U A66U G86A C114U cannot be ordered by “polymerase ribozyme fitness (log ratio)” value: no more than -4.2 for the first, no more than -4.2 for the second.

First: C8U A28C A41C A49C U61G C87G G133U A142C
Second: C8U A28G G34A C36U G86U A91G A110U
The “polymerase ribozyme fitness (log ratio)” value of the first is lower: no more than -4.2 for the first, -4.19 for the second.

C8U A29U A52C G86U A106G and C8U A29U G58C G94A C105G cannot be ordered by “polymerase ribozyme fitness (log ratio)” value: no more than -4.2 for the first, no more than -4.2 for the second.

C8U A30U U44A A97G U101G A113G C132U C149G A150U and C8U A37C A41C C95A A150G cannot be ordered by “polymerase ribozyme fitness (log ratio)” value: no more than -4.2 for the first, no more than -4.2 for the second.

C8U A37C G46C G74A G86U U90A C131A and C8U A37U U61A G70A C96U cannot be ordered by “polymerase ribozyme fitness (log ratio)” value: no more than -4.2 for the first, no more than -4.2 for the second.

C8U A39G U53C G74C and C8U A41C U44A G46A A47G G50C C95U U135G G141U cannot be ordered by “polymerase ribozyme fitness (log ratio)” value: no more than -4.2 for the first, no more than -4.2 for the second.

C8U A41C U44G G81C G92U C93G and C8U A47C C75U C87A A119U C132G G136U cannot be ordered by “polymerase ribozyme fitness (log ratio)” value: no more than -4.2 for the first, no more than -4.2 for the second.

C8U A52G C85A A119U U130G and C8U A142G C149G cannot be ordered by “polymerase ribozyme fitness (log ratio)” value: no more than -4.2 for the first, no more than -4.2 for the second.

C8U C10G C27G G88C and C8U C10G C35U U45A G50A C85A G94A G117U C132G cannot be ordered by “polymerase ribozyme fitness (log ratio)” value: no more than -4.2 for the first, no more than -4.2 for the second.

C8U C10U A29U C57U G83A C96A and C8U C14A C38U G59U G94U C116G cannot be ordered by “polymerase ribozyme fitness (log ratio)” value: no more than -4.2 for the first, no more than -4.2 for the second.

C8U C14G A17G U90A C149U and C8U C14G A23G C27A A28U cannot be ordered by “polymerase ribozyme fitness (log ratio)” value: no more than -4.2 for the first, no more than -4.2 for the second.

With C8U C14G U31G C57U G83A the “polymerase ribozyme fitness (log ratio)” value was no more than -4.2.
